From the supplement of paper PMC10126150
Sequences with one replicate were seen in a single cluster, so their values are uncertain.

Test system: ATP
Experiment: switch fluorescence ratio, 500 uM ATP over buffer (Cy3 cluster intensity, sum of 5 cycles each) (fold (ratio)); higher = stronger signal-on switching upon ATP binding; sequences stand for … in TCGTCGGCAGCGTCAGATGTGTATAAGAGACAGTTTTTTTTTTTTTTTTTTTTTTTTT…TC
Conditions: aptamer strand: ATP DNA aptamer (quencher-CACCTGGGGGAGTATTGCGGAGGAAGG + anchor), 100 nM annealed; ATP concentration: 500 uM; one replicate
How it was run: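 For every switch-domain sequence, the fluorescence ratio is the mean of per-cluster values, each being summed target-cycle Cy3 intensity over summed buffer-cycle Cy3 intensity. Clusters outside 100-1000 RFU were excluded. On a modified Illumina MiSeq flow-cell, the Cy3-labelled switching-strand clusters were annealed to 100 nM quencher-labelled ATP aptamer, imaged in selection buffer and then after 15 min with 500 uM ATP at 22 °C. Five such cycles were run, with NaOH stripping and re-annealing between them.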
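Note: ATP exposure 15 min at 22 °C before imaging.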

Sequence | switch fluorescence ratio
TACACTGTTG | 1.03
ATCTTTTGTA | 0.977
TAGAACCATC | 1.01
TCTCACGGGA | 1.13
CGCAGTTCTG | 1.14
TCAAGCGTTA | 1.01
TTCATAGCTC | 1.02
TAGAAAGGTT | 1.04
CAAAACGTAA | 1.09
GTGCTTAAGA | 1
CTCTCAACAG | 1.06
TCCGGATACC | 1.7
GTAGCATAAA | 1.34
TACTGTCCC | 1.1
AGTCGCGCCG | 1
GACCCGAACT | 1.05
CGACCGTTTT | 1.02
ACTTGATTTC | 1.01
TTGACTGAA | 1.06
ACGCAAAGTT | 1.26
GCAGCCGTCA | 1.02
TGCATTTTGG | 0.984
TCCTGTGTGG | 0.977

Sequence | switch fluorescence ratio
ATGCGATGTT | 0.97
CCAGAGACGC | 1.03
TATTATGGTA | 1.04
GGTTATCCGA | 0.979
TAGGGGCCGG | 0.998
AGTCTAGGTA | 0.987
TTCCGTACAA | 3.89
TCCTCTGGGG | 1.17
ATAGAACGAG | 0.998
GCTCATGTGT | 0.985
TTATGCTTTG | 1.03
ATAGCTTAAG | 1.02
CTTGGAACGG | 0.94
ATATCTCGTG | 1.03
AAGGAGGGTC | 1.02
GCCTTGTGTT | 0.988
CAGCGGTTTG | 1.02
CGGTAGCCCA | 0.975
ACAGGACATT | 1.06
AACCTCTGAC | 1.78
GTTGGTAGGC | 1.02
ACACTTTTCT | 1.02
TTTAATCGTC | 1.08

Sequence | switch fluorescence ratio
AGCTGGCCCG | 0.958
CATTGGGTAA | 0.986
TTTTAACATC | 1.04
CTTAGGGAAA | 0.957
CGTTGCCCGG | 1.02
GACGCCCAAT | 3.14
CCAATATGCA | 1.02
CGGATTGGCC | 0.989
AAGAAGGAGA | 1.02
CTAACGGCGC | 1.05
CGGTATTGT | 0.935
TGATTGCTTA | 0.968
CGTGTCACGC | 1.01
CAGGATGGTG | 1.02
TAGATCGGCC | 1.05
CTAAGCAACG | 1.06
AGATCAGCG | 1.03
GCTTGTGTTG | 1.06
AACTCGATCG | 0.97
ACCCGTGAA | 1.11
ACGAAGGCTC | 1.12
ATTGTCCACG | 0.994
ACAGACAGAC | 1.13

Sequence | switch fluorescence ratio
CGGTGAAGAT | 1.02
TAGACAGCGC | 1.08
TCTCACAGAG | 1.02
TCCAGGCAAA | 1.26
AATTCAAGCT | 1.02
CCTGGTCGAA | 0.971
TAGCTTTGTC | 0.987
CTAGATGGTC | 1.01
TTATTCCGTT | 0.976
CTGTGAGGCC | 0.882
TAGGTATTCC | 0.96
TCGTGTTCT | 0.986
ACGTTATCTC | 1.16
ACGCTGACTG | 1.19
ATCCTGGGCC | 1.01
TCGAGCATAA | 3.25
GCAACCCTGG | 1.29
TCGGTCGAGA | 1.02
GGCTTAATTG | 0.945
GGGTTCAGC | 1.02
TGGAAAACCC | 1.05
ACAATAGGGA | 1.02
GTTACCGATT | 0.97

Sequence | switch fluorescence ratio
AAGTTAAGC | 0.927
GAGAGTGGAT | 1.04
GATTCTCACT | 0.999
TATCTGCTTA | 1.03
AAGTTTGGGT | 0.974
CGCTTGGTTA | 0.978
AAGATTTAAC | 0.998
TAATACAAAC | 1.15
TGCAGCCAGG | 1.48
TCTGTTTCGA | 1.02
TAACCCATTT | 0.992
AGTCGGGTCG | 1.22
TACCTTCGA | 1.25
TTTAGCCT | 1.12
CAATGACGAT | 1.04
TGAGCCAGAA | 1.05
GAAGTTGCTG | 0.955
ATCCGATACC | 1.32
TTTCTTTCG | 1.11
GTTTTCCAGA | 1.02
TTGAAGACGG | 0.912
TATCAGAGTG | 1.01
CACAGCGTCT | 0.995

Sequence | switch fluorescence ratio
AATTTTGACA | 1.04
TAATCAGCCA | 0.965
AAGGCGGGAT | 1.07
CATGCTGAAC | 1.04
TGCCGCCAAT | 1.86
ACTATACCGC | 1.23
ATTAAGGTGA | 1.01
TGTTCTCGGT | 0.99
GGGTTTCTGG | 1.07
TCGTCTTTTA | 0.999
GAGAAATGTT | 0.998
CAGCAGGGTT | 1.02
CCGATGGCGG | 1.55
GCAGTCGGGG | 1.03
TCAACGACCG | 1.07
CCCGATTCAT | 0.998
TCTTGGCGTT | 1
GTCCGCGCTG | 1.06
GAGGGAACAC | 1
GTTGACTCTG | 1
AGGATTATTA | 0.996
TATCGAACCC | 1.03
TTGTGTTCTC | 1.06

Sequence | switch fluorescence ratio
GCCCTCGCCG | 1.06
TTACCACAAC | 1.08
ACATGCGTCC | 1.09
GAACGCCCGT | 1.13
CACTATTCAG | 0.952
TGAATTGGCG | 0.979
GTCCATCAGC | 1.03
GATGCGCCCC | 1.24
TAGCGTAATG | 0.98
GATGGAAGCC | 1.01
CGTTTGATGA | 1.02
TTCTAACGCC | 1.04
TTTCCCGCTT | 1.19
AGTCTGCACC | 1.19
GATGCCGTA | 0.967
GGCGTCGGCT | 1
CCGGAAGATA | 1.05
CCAGTCCGCC | 1.98
CCCGAGCTTC | 1.79
